Measured values as given in the supplement of paper PMC10338343.
± gives the standard deviation. Only a part is listed here, and it is no random draw.

The sequences below were run on MIWI (PIWIL1) piRISC loaded with piRNA #1 (30 nt) (assay: pre-steady-state target cleavage rate (min^-1); MIWI and MILI are mouse PIWI proteins and EfPiwi is from a freshwater sponge; tags in brackets are library labels; higher = faster piRNA-guided slicing of the target). Details: guide: piRNA #1 5'p-UGAGGUAGUAGGUUGUAUAGUAUCCAGAGG; auxiliary factor: 500 nM mouse GTSF1.
Summary of the method: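 Using HEPES–potassium acetate buffer at 33 °C, 1 nM active affinity-purified piRISC with a single synthetic guide was mixed with 0.1 nM transcribed, DNA-blocked target RNA library for 0–8 or 0–960 min, with or without 500 nM GTSF1 partner protein. Uncleaved targets were sequenced and normalised to depth and to weakly complementary targets, and three trials were pooled with k3 capped at 0.0001 min^-1. A burst-and-steady-state fit gave the pre-steady-state cleavage rate.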
For GGAGACCUUACUAUACAACAUACUACCUCA, the “pre-steady-state target cleavage rate” value was 0.85 ± 0.058. GGACUGGAUACUAUAGAACGUACUACCUCA was tested, and the “pre-steady-state target cleavage rate” value was 0.381 ± 0.041. With GGUCUGGAUACCUAUACAACCUACUACCUCA the “pre-steady-state target cleavage rate” value was 1.41 ± 0.1. With GGAGACCUAUCUAUAGAACCUACUACCACA the “pre-steady-state target cleavage rate” value was 0.193 ± 0.027. With CCUCUGGAUACUAUACAUCCUACUAGCUCA the “pre-steady-state target cleavage rate” value was 0.82 ± 0.072. For GGAGUGGAUACUCAUACAACCUACUACCUCA, the “pre-steady-state target cleavage rate” value was 1.16 ± 0.079. GCAGUGGAUACUAUACAACCUACUACCUCA was tested, and the “pre-steady-state target cleavage rate” value was 1.85 ± 0.095. GGAGACGAUACUAUACAACCUACAUACCUCA was tested, and the “pre-steady-state target cleavage rate” value was 1.29 ± 0.095. For GGAGACCUAACUAUUCAUCCUACUACCUCA, the “pre-steady-state target cleavage rate” value was 0.292 ± 0.043. In the case of GGAGACCUUACUUUACAACCUACUACCUGA, the “pre-steady-state target cleavage rate” value is reported as 0.3 ± 0.043. For GGAGACCUAUCUAUUCAACCUUCUACCUCA, the “pre-steady-state target cleavage rate” value was 0.0463 ± 0.0082. With GGUCUGGAUACUAAACAAGCUACUACCUCA the “pre-steady-state target cleavage rate” value was 1.09 ± 0.059. With CCUCUGGAUACUAUACUAGCUACUACCUCA the “pre-steady-state target cleavage rate” value was 0.697 ± 0.049. In the case of GGUACUGGAUACUAUACAACCUACUACCUCA, the “pre-steady-state target cleavage rate” value is reported as 1.75 ± 0.079. GGAGACGAUACUAUACAACCUUCUUCCUCA was tested, and the “pre-steady-state target cleavage rate” value was 0.252 ± 0.043. GGUGUGGAUACUAUACAACCUACAACCUCA was tested, and the “pre-steady-state target cleavage rate” value was 0.35 ± 0.05. In the case of CCUCUGGAUACUAUACAACCUACCACCUCA, the “pre-steady-state target cleavage rate” value is reported as 0.818 ± 0.071. With GGAGACCUAUGAUAUGUACCAACUACCUCA the “pre-steady-state target cleavage rate” value was < 0.0001. “CCUCUGGAUACUAUACAACCUACUAGGAGA [g6:g30:cont:t1A]” was tested, and the “pre-steady-state target cleavage rate” value was 0.0261 ± 0.0073. With GCUCUGGAUUCUAUACUACCUACUACCUCA the “pre-steady-state target cleavage rate” value was 0.943 ± 0.066. In the case of GGAGACCUAUCUAUACAACCUACAACGUCA, the “pre-steady-state target cleavage rate” value is reported as 0.111 ± 0.021. GGACUGGAUUCUAUACAUCCUACUACCUCA was tested, and the “pre-steady-state target cleavage rate” value was 1.32 ± 0.1. With GGAGACCACUACUAUACAACCUACUACCUCA the “pre-steady-state target cleavage rate” value was 1.48 ± 0.12. For GGAGACCUAUCUAUACAAACUACUACCUCA, the “pre-steady-state target cleavage rate” value was 0.369 ± 0.029. GGAGAGGAUCCUAUACAACCUACUACCUCA was tested, and the “pre-steady-state target cleavage rate” value was 1.51 ± 0.11. GGAGACGAUACUAAACAACGUACUACCUCA was tested, and the “pre-steady-state target cleavage rate” value was 0.614 ± 0.047. With GGAGACCUAUCUAUACAACCUACUAUCUCA the “pre-steady-state target cleavage rate” value was 0.314 ± 0.044. In the case of GGUCAGGAAACUAUACAACCUACUACCUCA, the “pre-steady-state target cleavage rate” value is reported as 1.77 ± 0.12. With GGAGACCAUACUAUACAACCUACUAGCACA the “pre-steady-state target cleavage rate” value was 0.228 ± 0.042. For GGAGACCUAACUAUAUAACCUACUACCUCA, the “pre-steady-state target cleavage rate” value was 0.878 ± 0.074. For GGAGUGGAUACUAAUGAACCUACUACCUCA, the “pre-steady-state target cleavage rate” value was 0.257 ± 0.044. GCUCUGGUUACUAUACAACGUACUACCUCA was tested, and the “pre-steady-state target cleavage rate” value was 1.12 ± 0.063. In the case of GGAGAGGAUACUAUACAACCUACUUGCUCA, the “pre-steady-state target cleavage rate” value is reported as 0.0895 ± 0.025. GGAGAGGAUACAAUACAACCUAGUACCUCA was tested, and the “pre-steady-state target cleavage rate” value was 0.261 ± 0.039. In the case of GGACUGGAUACUAUACAACGUACUACCUGA, the “pre-steady-state target cleavage rate” value is reported as 0.377 ± 0.047. GGAGACCUUUCUAUACAACCUACUAGCUCA was tested, and the “pre-steady-state target cleavage rate” value was 0.492 ± 0.043. For CCUCUAGGAUACUAUACAACCUACUACCUCA, the “pre-steady-state target cleavage rate” value was 2.12 ± 0.12. GGAGACCUAACUAUACAACCUAGAUCCUCA was tested, and the “pre-steady-state target cleavage rate” value was 0.00694 ± 0.0038. With CCUCUGGAUACUAUACAACCUACUCCCUCA the “pre-steady-state target cleavage rate” value was 1.18 ± 0.068. In the case of GGAGACCUUACUAAACAACCUACUAGCUCA, the “pre-steady-state target cleavage rate” value is reported as 0.301 ± 0.043.
